Laboratory results taken from publication PMC4336329 (PLoS ONE, 2015).
Screen size: about 310,000 compounds; about 14,000 (4.5%) showed an effect of 50% or more. Effects have a minus sign here. The list shows a part of the results.

target: human ether-à-go-go-related gene (hERG) potassium channel (human, UniProt Q12809); assay: primary screen, population patch clamp on CHO cells stably expressing hERG
Method: Briefly, Chinese hamster ovary (CHO) cells stably expressing the hERG channel were dislodged from tissue culture flasks and dispensed into PPC plates. […] During the recording, background leak currents were estimated by a 100 ms step to -80 mV from an initial holding potential of -70 mV and subtracted from the subsequent current measurement. The campaign was conducted in two phases using slight differences in recording protocol. In the first phase, the initial voltage pulse used a 100 ms step to -30 mV from a holding potential of -70 mV, a 2 s conditioning step to +25 mV, and a 2 s test step to -30 mV. During the second phase of the screen, the potential during the conditioning step was raised to +45 mV. In both phases of the campaign, a secondary voltage pulse was applied using the same parameters as the second phase initial pulse. The initial and secondary pulses were applied in the absence of compound, and upon application of 1 μM and 10 μM test concentrations. […]
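Further: peak tail current of the secondary pulse compared with the same well before compound.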

Chain of human ether-à-go-go-related gene (hERG) potassium channel (Q12809 whole entry, looked up): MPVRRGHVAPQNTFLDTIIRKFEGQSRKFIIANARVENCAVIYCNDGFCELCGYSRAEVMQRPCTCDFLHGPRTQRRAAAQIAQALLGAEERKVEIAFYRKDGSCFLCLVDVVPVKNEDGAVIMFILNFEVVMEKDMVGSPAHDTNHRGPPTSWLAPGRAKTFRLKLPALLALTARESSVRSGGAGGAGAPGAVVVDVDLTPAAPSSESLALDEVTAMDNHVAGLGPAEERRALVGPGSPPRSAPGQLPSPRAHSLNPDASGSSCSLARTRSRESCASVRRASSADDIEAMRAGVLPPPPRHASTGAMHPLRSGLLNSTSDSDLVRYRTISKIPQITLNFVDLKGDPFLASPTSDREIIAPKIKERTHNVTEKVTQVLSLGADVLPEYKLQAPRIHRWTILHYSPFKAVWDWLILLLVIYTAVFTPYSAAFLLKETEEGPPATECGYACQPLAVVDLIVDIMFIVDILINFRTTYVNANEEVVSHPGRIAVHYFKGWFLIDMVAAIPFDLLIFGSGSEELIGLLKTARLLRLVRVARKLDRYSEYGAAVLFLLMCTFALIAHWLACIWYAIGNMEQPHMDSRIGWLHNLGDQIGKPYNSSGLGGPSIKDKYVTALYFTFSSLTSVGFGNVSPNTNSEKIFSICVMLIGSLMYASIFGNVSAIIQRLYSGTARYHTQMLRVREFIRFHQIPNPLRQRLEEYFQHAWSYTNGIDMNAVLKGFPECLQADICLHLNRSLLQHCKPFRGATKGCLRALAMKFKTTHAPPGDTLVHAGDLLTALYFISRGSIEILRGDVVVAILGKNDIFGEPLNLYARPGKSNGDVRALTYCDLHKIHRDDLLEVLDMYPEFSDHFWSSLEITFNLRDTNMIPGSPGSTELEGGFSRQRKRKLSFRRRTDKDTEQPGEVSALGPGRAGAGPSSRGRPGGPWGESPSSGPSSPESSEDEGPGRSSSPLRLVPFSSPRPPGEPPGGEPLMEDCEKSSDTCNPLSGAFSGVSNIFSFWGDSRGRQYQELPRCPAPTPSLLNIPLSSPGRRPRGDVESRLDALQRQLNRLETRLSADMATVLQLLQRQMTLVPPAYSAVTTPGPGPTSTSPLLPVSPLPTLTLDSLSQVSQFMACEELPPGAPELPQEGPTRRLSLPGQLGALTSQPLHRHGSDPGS

| Compound | hERG current change (%, negative = inhibition) at 10uM [%] |
| --- | --- |
| Cc1nn(C)c(C(=O)NNC(=O)Nc2cccc(C(F)(F)F)c2)c1Cl | 37.5 |
| Cc1ccc(S(=O)(=O)N2CCNC(=O)CC2)cc1 | 12.2 |
| CC(C)C(O)C1CCN(Cc2nc(Cc3ccccc3Cl)no2)CC1 (centres unmarked) | 11.9 |
| Cc1coc2cc3oc(=O)c(CCC(=O)NC4CC4)c(C)c3cc12 | 7.02 |
| COc1ccc(NC(=O)C2CCCCN2CC(=O)OCc2ccccc2)cc1OC.O=C(O)C(=O)O (centres unmarked) | -4.79 |
| Nc1ccccc1SC1CC(=O)N(c2ccc3c(c2)OCCO3)C1=O (centres unmarked) | 13 |
| COc1ccc(C(=O)N(CN2CCCC2=O)c2nccs2)cc1OC | 7.06 |
| C=CCOC(=O)C1=C[C@@H](c2ccc(Br)cc2)C[C@@H](OCCCCO)O1 | -44.6 |
| O=C(COc1ccc(Br)cc1)Nc1ccccc1C(=O)N1CCOCC1 | -14.2 |
| COc1ccccc1N(CC(=O)NCCN1CCOCC1)S(=O)(=O)c1ccc(C)cc1 | -10.1 |
| COc1ccc2cc(-c3[nH]ncc3CN3CCCC3c3nonc3C)ccc2c1 (centres unmarked) | 0.998 |
| COCC(C)n1c(COc2ccccc2F)nnc1SCC(=O)c1c(N)n(C)c(=O)n(C)c1=O (centres unmarked) | 16.4 |
| CCCC(Oc1ccc(Br)cc1)c1nc2c3cc(OC)c(OC)cc3nc(=S)n2[nH]1 (centres unmarked) | 14.5 |
| Cc1c(C(=O)N2CCOCC2)oc2ccccc12 | 5.05 |
| CC(=O)N/C(=C\c1ccc(F)cc1)C(=O)NC(Cc1ccccc1)C(=O)O (centres unmarked) | 15.8 |
| CCC(=O)N1CCN(c2ccc(NC(=O)c3cc4ccccc4o3)cc2Cl)CC1 | -67.7 |
| O=C(COC(=O)c1ccccc1C(=O)c1ccc(Cl)cc1)NCc1ccccc1 | 6.97 |
| COc1cccc(N/C(C)=C/C(=O)c2ccc(Br)cc2)c1 | 9.55 |
| C=CCn1c(CC(=O)OC)csc1=Nc1ccc(C(C)=O)cc1 | -2.98 |
| CCC(Sc1ncccc1Nc1ccccn1)C(=O)O (centres unmarked) | 27.1 |
| COC(=O)c1[nH]c2c(c1C)C(=O)CC(c1ccc(C)cc1)C2 (centres unmarked) | 8.65 |
| O=c1[nH]c(C2CCCN(S(=O)(=O)c3ccccc3)C2)nc2c1nnn2Cc1ccccc1Br (centres unmarked) | -4.77 |

| Compound | hERG current change (%, negative = inhibition) at 10uM [%] |
| --- | --- |
| Cc1ccc(NC(=O)Nc2ncccc2C)cc1 | 0.423 |
| COc1cc(CO)ccc1OCc1nnnn1-c1ccc(C)cc1 | 0.766 |
| COc1cccc(NS(=O)(=O)c2ccc(NC(C)=O)cc2)c1 | -9.9 |
| COCCNC(=S)N1CCC(c2nc(-c3ccc(F)cc3)no2)CC1 | -18.9 |
| NC(=O)Nc1cccc2ccccc12 | 14.7 |
| Cl.Clc1ccc(CNCCCSc2ncccn2)cc1Cl | -19.8 |
| Cc1ccc(C2(c3ccccc3)NC(=O)N(CC(=O)NC3(C#N)CCCC3)C2=O)cc1C (centres unmarked) | -63.4 |
| Cc1cc(C(=O)OCC(=O)N(C)c2ccccc2)ccc1[N+](=O)[O-] | -14.4 |
| Cc1c2cnn(CC(=O)Nc3c(F)c(F)cc(F)c3F)c(=O)c2c(C)n1Cc1ccc(F)cc1 | 7.84 |
| CC(C)Cn1nc(C(=O)Nc2nnc(C3CC3)s2)c2ccccc2c1=O | -48.1 |
| O=C(N/N=C/c1ccncc1)c1ccc(-n2cccc2)cc1 | -23.6 |
| Cc1cc(NS(=O)(=O)c2ccc(NC(=O)COc3ccc(Br)cc3)cc2)nc(C)n1 | 12 |
| Cc1cccc(N(C(=O)CNC(=O)c2cccs2)C(C(=O)NC2CCCC2)c2ccncc2)c1 (centres unmarked) | -3.44 |
| CC1CCCN(C(=O)Cn2c3ccccc3c3nc4n(c(=O)c32)CCS4)C1 (centres unmarked) | -3.59 |
| Cc1onc(-c2ccccc2)c1C(=O)Nc1ccc(C(=O)N2CCCCC2)cc1 | 10.5 |
| CC1CCCCC1NC(=O)CN1C(=O)NC(C)(c2ccc(OC(F)F)cc2)C1=O (centres unmarked) | -47.2 |
| O=C(NCCc1cccs1)C(c1ccccc1)c1ccccc1 | 21.1 |
| COc1ccc(CCNC(=O)CCS(=O)(=O)c2ccc3c(c2)oc(=O)n3C)cc1OC | 13.1 |
| C=CCN(C(=O)CNC(=O)c1cccs1)C(C(=O)NC1CCCCC1)c1cccnc1 (centres unmarked) | 4.85 |
| NC(=S)N/N=C1/CCSc2ccc3ccccc3c21 | -23.4 |
| C/C(=N\NC(=O)Nc1ccccc1)c1ccc2ccccc2c1 | 11.5 |
| Cc1ccc(Nc2nc(OC(C(F)(F)F)C(F)(F)F)nc(N3CCOCC3)n2)cc1 | 8.16 |
